Over roughly 33,000 sequences, “E-score (-0.5 to 0.5)” has its median near -0.036; the highest 2% begin near 0.37. Some of the results follow.
Target: T1, Yer064c (UniProt P40041)
T1 sequence: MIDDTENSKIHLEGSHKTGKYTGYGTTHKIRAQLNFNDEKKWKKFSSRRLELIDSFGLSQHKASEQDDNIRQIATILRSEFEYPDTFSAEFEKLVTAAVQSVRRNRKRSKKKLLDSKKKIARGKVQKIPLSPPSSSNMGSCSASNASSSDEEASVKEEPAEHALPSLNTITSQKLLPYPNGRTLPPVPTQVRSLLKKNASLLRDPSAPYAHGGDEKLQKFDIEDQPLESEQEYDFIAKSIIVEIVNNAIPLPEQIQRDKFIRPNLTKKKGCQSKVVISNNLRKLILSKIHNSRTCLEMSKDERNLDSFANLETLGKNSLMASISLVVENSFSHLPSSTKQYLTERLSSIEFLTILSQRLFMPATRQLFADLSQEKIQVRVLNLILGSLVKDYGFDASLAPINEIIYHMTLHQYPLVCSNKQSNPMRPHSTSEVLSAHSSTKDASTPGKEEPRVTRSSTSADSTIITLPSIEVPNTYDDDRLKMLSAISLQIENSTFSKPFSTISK
Assay: PBM E-score (8-mer binding enrichment) (E-score (-0.5 to 0.5)); higher = stronger / more preferred TF binding; most listed sequences are background and not binding sites
Settings: protein concentration: 200 nM; construct: GST-full length
Method in brief: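 GST-tagged yeast TFs (full-length or DNA-binding domain) were made by PURExpress in vitro transcription/translation and applied at about 100-200 nM to universal all-10-mer Agilent arrays. The arrays were made double-stranded by primer extension, on fresh or once-stripped slides. Bound protein was detected with fluorescent anti-GST, and scans were normalised with masliner. Each ungapped eight-base word, pooled with its reverse complement, received an E-score (modified Wilcoxon-Mann-Whitney statistic) from the Universal PBM Analysis Suite.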

Row | Sequence | PBM E-score
1 | ACTTGCAA | 0.129
2 | AACCCTGT | -0.166
3 | GTGTGAAC | -0.00276
4 | GATTGCTA | 0.0989
5 | AGCCCTTG | -0.16
6 | TAGATCGA | -0.0873
7 | GGGAGAAC | -0.314
8 | CCGATGGC | -0.113
9 | CACTATCC | -0.196
10 | AAAAAAGC | 0.0629
11 | GATCGGCA | -0.311
12 | CGCGACCC | -0.0841
13 | CAATTCTG | -0.197
14 | TGCTAAAA | -0.0598
15 | TCGACAGA | -0.0539
16 | AATGGTCA | 0.137
17 | GCTGAATA | 0.0545
18 | ATAATTTA | 0.167
19 | AGAAGACT | 0.368
20 | ACGTCCAG | -0.27
21 | CATTTGCG | -0.101
22 | ATCCCTCA | -0.155
23 | AATACTCT | 0.0892
24 | AGTGCGAA | -0.052
25 | CTAGCCAA | 0.066

Row | Sequence | PBM E-score
26 | CGTACCCA | -0.0505
27 | TACGTTAA | -0.103
28 | AGAATCTC | -0.0155
29 | GTTGGAAA | -0.188
30 | ATTACGGC | -0.101
31 | GCTCATTA | -0.044
32 | GGTATACA | -0.0154
33 | CCGGCCCG | -0.131
34 | ATAGGAAC | -0.175
35 | ATACCTTG | 0.1
36 | AAACAGAG | -0.00984
37 | AGGCATAT | -0.127
38 | ACTGCAGG | -0.0274
39 | GGGTTCCA | -0.205
40 | CTTCAAGC | 0.0604
41 | GTGCTATA | -0.0444
42 | GAGCCCTC | -0.172
43 | CAGAGTTA | 0.0676
44 | CCACCCGA | 0.00066
45 | ACGATTGA | 0.216
46 | CGACCGTA | -0.147
47 | CCCATGGA | 0.0553
48 | CATTGAAA | 0.0309
49 | ATTCATGG | 0.224
50 | AGCTGTAC | -0.207

Row | Sequence | PBM E-score
51 | GCCGCTAA | -0.273
52 | CGCCAAGA | -0.00635
53 | ATACATGA | 0.159
54 | ACCTGCAA | 0.0126
55 | CAATTCTA | 0.0238
56 | AATAGGTA | -0.0576
57 | AAGTTCTA | -0.00496
58 | CGACCTTA | -0.105
59 | CGGTGGCA | -0.281
60 | TTATTGAA | 0.143
61 | AAAACCAT | 0.104
62 | AGATGTGC | -0.0118
63 | AGCACCAG | -0.161
64 | GCACCACA | -0.266
65 | TAACGAGA | 0.00472
66 | CCGCCTCC | -0.273
67 | AACTTACT | 0.12
68 | GGAATGCC | -0.278
69 | ACGCCAGG | 0.0901
70 | CCGATGTC | -0.0998
71 | CAGCTAAC | -0.13
72 | TCATCTCA | 0.246
73 | ATATCTTA | 0.0774
74 | ACACTGGG | -0.238
75 | GCCGGCAA | -0.269

Row | Sequence | PBM E-score
76 | ACCTAGGA | 0.0485
77 | CTATTGTA | 0.12
78 | AAAGGGAG | -0.123
79 | CGCTTGTA | -0.187
80 | CTTTGTTC | -0.0786
81 | AATACGGA | -0.129
82 | GGCGCCTA | -0.151
83 | AACGAGAG | -0.0209
84 | TAGAGCTA | -0.198
85 | ATGGTACG | -0.0676
86 | GGTCTCAC | 0.0207
87 | AAGGGTGT | -0.00845
88 | AGATTAAT | 0.226
89 | CCCACGGA | -0.156
90 | ATGCACAC | 0.0372
91 | AATTCGTG | 0.0735
92 | CCTTGCTC | -0.154
93 | CAAAGCGA | 0.0499
94 | CATGATAG | 0.00532
95 | CGAACTTC | -0.0141
96 | CTAAGCGC | -0.114
97 | CAGCCTGC | -0.256
98 | AAGGACGG | -0.168
99 | ACAAGCAA | 0.0262
100 | CCGTTCCG | -0.0781

Row | Sequence | PBM E-score
101 | CGATGTAC | -0.0701
102 | ACCCGCCA | -2e-05
103 | AGACCCAG | -0.0607
104 | GTCTACAA | 0.127
105 | ACCCCAGA | -0.0636
106 | AGCTGCCG | -0.0915
107 | GAATAATC | 0.251
108 | CTCGGACC | -0.00324
109 | CAGATTAA | 0.183
110 | AACCGTAA | -0.0266
111 | GTCTGAAA | -0.00599
112 | AAGCCAGG | -0.134
113 | ATCCCCGC | -0.112
114 | GATTATAC | 0.239
115 | ATAGGTGA | 0.122
116 | TGCTGCAA | -0.0967
117 | CCGACCAG | -0.261
118 | CTACTCGC | 0.0327
119 | CAGAGCAA | -0.0906
120 | CCGGAACC | -0.21
121 | CTGGTGCA | -0.18
122 | TGGCGGAA | -0.313
123 | TCCCCCAA | -0.107
124 | CTGTGATC | 0.0336
125 | GGATTTAA | 0.0151

Row | Sequence | PBM E-score
126 | ACCGGAAA | -0.195
127 | AAATCTAT | -0.0116
128 | GCCCATAC | -0.0645
129 | CTTTAATC | 0.29
130 | GACTGTCA | 0.286
131 | CAAGGGAA | -0.0578
132 | TATAGCAA | -0.174
133 | CAGAAGTC | 0.293
134 | GTCTTAAA | 0.166
135 | AGTGAACC | 0.0366
136 | CACGAAAG | -0.148
137 | ACCGCGCC | -0.26
138 | CATACGTC | -0.0606
139 | CGCCCTAA | -0.114
140 | ATAATCTA | 0.14
141 | GGCGTCCC | -0.329
142 | ATAAGACC | -0.0423
143 | CAGCCAGC | -0.181
144 | ACCGGCCT | -0.188
145 | AACCTTGA | 0.0951
146 | CGCCGGAA | -0.145
147 | GACACCAA | -0.00346
148 | CTGTCCCC | -0.201
149 | CTTACTTC | 0.0114
150 | CGAAAGTA | 0.0513

Row | Sequence | PBM E-score
151 | GGTCTGAC | 0.235
152 | CTGTCCAA | -0.239
153 | GGGCGCCA | -0.326
154 | CCACCCTA | -0.0978
155 | GACTCGGA | 0.351
156 | CCATTTCG | -0.0764
157 | CCGATTAG | -0.12
158 | AACATAAC | -0.106
159 | CCATTTAG | -0.0338
160 | ATCCTGGG | -0.0196
161 | TCTTGTAA | 0.113
162 | CACCTGGA | -0.106
163 | CTCGGTTA | 0.0632
164 | ACGGAAGG | -0.28
165 | CTATCAAA | 0.00494
166 | TCAAGCCA | 0.17
167 | CCCCGAGC | -0.0415
168 | CTCCGGGC | -0.116
169 | AGATGCTG | -0.141
170 | GAAAGGTA | -0.0333
171 | GCGTGCCC | -0.242
172 | CCTACGAG | 0.0278
